Among all 350,000 compounds or so, about 31,000 (8.9%) were called active. The inconclusive results got no clear call from the source; some entries with a clear call stand among them for comparison. Calls come from the whole dose curve; as a rule, active = well fitted inhibition curve with a large enough effect; inconclusive = small, poorly fitted or top-dose-only effect; inactive = no such curve, though single readings can be large or run the other way. A potency beside an inconclusive call is a rough fit, not a confirmed value.
target: Histone-lysine N-methyltransferase EHMT2 (Homo sapiens) (UniProt Q96KQ7); assay: qHTS Assay for Inhibitors of Histone Lysine Methyltransferase G9a; settings: G9a H3K9 monomethylation, AlphaScreen, 2 h; activity, negative = inhibition: at 59 µM (top of the series) unless noted; note: nearly all actives have a fitted effect of over 75% in size
Procedure, shortened: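 Step 1: enzyme (final 20 nM) with compound, 15 min RT. Step 2: substrate peptide 500 nM and SAM 20 uM, 2 h RT. Step 3: anti-H3K9me1 antibody and AlphaScreen beads, 10 min, then plate read.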
% is set by controls: 0 for no effect and ±100 for the full control effect; potency is the fitted concentration of half-maximal effect; tags give direction and shape of the fitted curve.

Chain of UniProt Q96KQ7 (Q96KQ7 whole entry, looked up): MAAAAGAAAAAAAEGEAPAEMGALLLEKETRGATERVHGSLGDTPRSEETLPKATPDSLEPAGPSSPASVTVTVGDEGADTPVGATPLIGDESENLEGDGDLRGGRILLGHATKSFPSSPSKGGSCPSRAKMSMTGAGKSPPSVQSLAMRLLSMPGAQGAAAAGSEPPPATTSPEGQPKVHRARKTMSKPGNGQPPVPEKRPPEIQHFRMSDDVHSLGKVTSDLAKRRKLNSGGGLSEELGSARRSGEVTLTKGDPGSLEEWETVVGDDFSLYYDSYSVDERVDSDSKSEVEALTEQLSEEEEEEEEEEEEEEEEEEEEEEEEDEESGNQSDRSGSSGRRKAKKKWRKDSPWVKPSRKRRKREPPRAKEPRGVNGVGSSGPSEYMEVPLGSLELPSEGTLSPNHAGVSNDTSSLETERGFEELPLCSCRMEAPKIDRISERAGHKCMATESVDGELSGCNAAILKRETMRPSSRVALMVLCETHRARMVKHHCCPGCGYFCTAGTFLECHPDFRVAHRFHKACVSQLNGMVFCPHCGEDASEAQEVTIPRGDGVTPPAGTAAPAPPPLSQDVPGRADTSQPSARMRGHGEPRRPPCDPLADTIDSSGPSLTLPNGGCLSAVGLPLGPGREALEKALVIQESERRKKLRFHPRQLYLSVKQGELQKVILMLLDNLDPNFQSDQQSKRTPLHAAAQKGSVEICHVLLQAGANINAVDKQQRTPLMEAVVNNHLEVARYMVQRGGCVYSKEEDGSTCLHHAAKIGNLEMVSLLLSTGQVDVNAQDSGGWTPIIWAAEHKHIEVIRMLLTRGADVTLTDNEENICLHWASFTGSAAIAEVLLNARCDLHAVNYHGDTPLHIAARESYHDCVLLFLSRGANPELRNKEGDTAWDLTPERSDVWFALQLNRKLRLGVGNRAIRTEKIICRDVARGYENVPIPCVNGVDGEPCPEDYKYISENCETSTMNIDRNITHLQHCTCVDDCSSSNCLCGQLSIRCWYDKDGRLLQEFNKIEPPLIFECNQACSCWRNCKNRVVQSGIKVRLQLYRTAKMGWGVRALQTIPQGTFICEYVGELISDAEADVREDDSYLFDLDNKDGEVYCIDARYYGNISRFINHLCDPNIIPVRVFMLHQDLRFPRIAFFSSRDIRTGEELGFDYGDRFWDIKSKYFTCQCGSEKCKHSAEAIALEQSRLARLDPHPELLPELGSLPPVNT

Structure (SMILES) | Potency | activity, negative = inhibition
O=C(CNCC1CCCCC1)Nc1ccc(N2CCCCC2)cc1 | active: 22.4 µM | –
CCOc1ccc(NC(=S)NN(C)C(=S)Nc2ccc(OCC)cc2)cc1 | – | inactive: -3.83% [at 102 µM]
Cc1cc(/C=c2\sc3nc4ccccc4n3c2=O)c(C)n1-c1ccc(C(=O)O)cc1 | active: 25.1 µM | –
O=C1C2C3C=CC(C3)C2C(=O)N1c1ccc2c(c1)OCO2 (stereo unspecified) | – | inactive: -46.8% [at 102 µM]
CCOC(=O)c1cccc(NC(=O)C2COc3ccc(OC)cc3C2)c1 (stereo unspecified) | – | inactive: -6.17%
COc1ccc(N2CCC(CNC(=O)Nc3ccccc3)C2)cc1 (stereo unspecified) | inconclusive: 1.41 µM [inhibitor, partial curve, poor fit] | –
CC(C)C[C@@H](COc1ccccc1)N1CCN(CCc2ccccc2)CCC1=O | inconclusive: 35.5 µM [inhibitor, partial curve, poor fit] | –
CC(=O)c1ccc(NC(=O)CNCC(c2ccccc2)N(C)C)cc1 (stereo unspecified) | active: 14.1 µM | –
O=C(Nc1ccccc1OCc1cc(=O)n2ccccc2n1)Nc1ccccc1C(F)(F)F | – | inactive: -11.8%
COC(=O)Nc1ccc([N+](=O)[O-])cc1OC | – | inactive: 14% [at 102 µM]
CC1(C(=O)N(CC(=O)NC2CCCC2)C2CCCC2)CC(=O)N=C2C=CC=CN21 (stereo unspecified) | inconclusive: 100 µM [inhibitor, single point] | –
c1ccc(N2CCOCC2)c(Nc2nc3ccccc3n3cnnc23)c1 | inconclusive: 79.4 µM [inhibitor, partial curve, poor fit] | –
COc1cccc(N2CC(C(=O)Nc3nnc(SCc4cccnc4)s3)CC2=O)c1 (stereo unspecified) | inconclusive: 31.6 µM [inhibitor, single point] | –
COCCn1c(N)c(N(Cc2ccccc2)C(=O)COc2ccc(F)cc2Cl)c(=O)[nH]c1=O | inconclusive: 89.1 µM [inhibitor, partial curve, poor fit] | –
Cc1ccc(NC(=S)NNC(=O)c2nn(C)cc2Cl)cc1 | active: 35.5 µM | –
COc1ccc([N+](=O)[O-])cc1NC(=O)C(C)OC(=O)CSC(C)C(=O)Nc1cc(C)on1 (stereo unspecified) | – | inactive: -38.7% [at 102 µM]
COc1ccccc1-c1noc(Cn2cc(S(=O)(=O)N3CCCC3)ccc2=O)n1 | – | inconclusive: -52% [inhibitor] [at 0.501 µM]
O=C(O)Cc1nc(-c2cccnc2)sc1-c1ccc(Br)cc1 | inconclusive: 79.4 µM [inhibitor, partial curve, poor fit] | –
CSc1nc(-c2ccco2)nn1C(=O)c1ccccc1 | inconclusive: 39.8 µM [inhibitor, single point] | –
Cc1ccc(C23CC4CC(CC(C(=O)NC(C(=O)O)C(C)C)(C4)C2)C3)cc1 (stereo unspecified) | – | inactive: 4.34% [at 102 µM]
O=C(Oc1ccc(F)cc1C(=O)/C=C/c1cccs1)c1cccc([N+](=O)[O-])c1 | inconclusive: 31.6 µM [inhibitor, partial curve] | –
O=C(Nc1ccccc1)OC1CCC2CC1CCC2OC(=O)Nc1ccccc1 (stereo unspecified) | inconclusive: 89.1 µM [inhibitor, partial curve, poor fit] | –
COc1ccc(/C=C2/SC(c3ccc(C)cc3)=NC2=O)cc1OC | active: 2.82 µM | –
CC(=O)Nc1ccccc1-c1nc2ccc(C(=O)N3CCN(c4ccccc4)CC3)cc2[nH]c1=O | active: 44.7 µM | –

Structure (SMILES) | Potency | activity, negative = inhibition
COc1ccc(OCC(=O)Nc2cc(S(=O)(=O)N3CCCC3)ccc2OCC(F)(F)F)cc1 | inconclusive: 79.4 µM [inhibitor, partial curve, poor fit] | –
O=C(O)c1cccc(NS(=O)(=O)c2ccc(NC(=O)c3ccco3)cc2)c1 | inconclusive: 50.1 µM [inhibitor, partial curve] | –
N#Cc1ccc(NC(=O)COC(=O)c2ccc(F)c(S(=O)(=O)N3CCOCC3)c2)cc1 | – | inconclusive: -79.2% [inhibitor] [at 2.33 µM]
O=C(O)c1ccc2c3c(cccc13)C(=O)N(c1ccccc1)C2=O | active: 20 µM | –
CCCn1c2ccc(C)cc2c2nnc(SCCN3CCOCC3)nc21 | – | inactive: 0.795% [at 102 µM]
O=c1sc2ccccc2c(N2CCN(c3ccccc3)CC2)c1[N+](=O)[O-] | inconclusive: 89.1 µM [inhibitor, partial curve, poor fit] | –
COc1ccccc1CNC(=O)C1CCCN(S(=O)(=O)c2c(C)[nH]c(=O)[nH]c2=O)C1 (stereo unspecified) | inconclusive: 44.7 µM [inhibitor, partial curve] | –
COc1ccc(NC(=O)/C(C#N)=C/c2cccnc2)c(OC)c1 | inconclusive: 89.1 µM [inhibitor, single point] | –
CC(C)C[C@@H](CO)N1CCN(Cc2ccccc2)CCC1=O | inconclusive: 89.1 µM [inhibitor, single point] | –
COc1ccccc1C1/C(=C(/O)c2ccccc2)C(=O)C(=O)N1CC(C)O (stereo unspecified) | inconclusive: 56.2 µM [inhibitor, partial curve, poor fit] | –
COc1cc(C2C(C#N)=C(N)Oc3cc(C)n(CC4CCCO4)c(=O)c32)cc2c1OCO2 (stereo unspecified) | inconclusive: 15.8 µM [inhibitor, partial curve] | –
Cc1cc2c(Nc3ccc(O)cc3)ncnc2s1 | active: 56.2 µM | –
CN(C(=O)CSc1nc2cc(Cl)ccc2c(=O)n1Cc1ccco1)C1CCS(=O)(=O)C1 (stereo unspecified) | – | inactive: -12.2% [at 102 µM]
Cc1c(NC(=O)Cc2ccc(Cl)cc2)cccc1-c1nc2cccnc2s1 | inconclusive: 15.8 µM [inhibitor, partial curve] | –
Oc1cccc(/C=N/NC(=S)Nc2cccnc2)c1O | active: 11.2 µM | –
CC(C)Oc1ccc(Cn2c(-c3ccco3)n[nH]c2=S)cc1 | active: 0.708 µM | –
CC(=O)Nc1cccc(NC(=O)C(=O)NCC(c2ccco2)N2CCc3ccccc32)c1 (stereo unspecified) | active: 50.1 µM | –
Cc1ccc(-n2ncc(C(=O)N3CCN(c4ccccc4F)CC3)c2C2CCN(C(=O)OC(C)(C)C)CC2)cc1C | – | inactive: -1.76%
Cc1cccc(OC(=O)CSc2nnc(-c3cccs3)o2)c1C | inconclusive: 35.5 µM [inhibitor, partial curve, poor fit] | –
S=c1oc(-c2ccncc2)nn1CCc1ccncc1 | – | inactive: 3.38% [at 12.7 µM]
O=C(O)/C=C/C(=O)Nc1ccc(OCc2ccccc2)cc1 | active: 56.2 µM | –
CCCOc1ccc(/C(O)=C2/C(=O)C(=O)N(CCN(C)C)C2c2ccc(O)c(OC)c2)cc1 (stereo unspecified) | active: 44.7 µM | –
Cc1cc(Cl)c(OCCCNCc2ccccc2)c(Br)c1 | active: 11.2 µM | –
C=C1/C(=C\C=C2/CCC[C@]3(C)[C@@H]([C@H](C)/C=C/[C@@H](O)C4CC4)CC[C@@H]23)C[C@@H](O)C[C@@H]1O | – | inactive: -2.14% [at 12.7 µM]

Structure (SMILES) | Potency | activity, negative = inhibition
Cc1ccc(OCCC(=O)N(CC(=O)Nc2ccccc2C(F)(F)F)Cc2ccco2)cc1 | inconclusive: 56.2 µM [inhibitor, partial curve, poor fit] | –
COc1cccc(NC(=O)c2ccc(-c3ccc([N+](=O)[O-])cc3)o2)c1 | inconclusive: 79.4 µM [inhibitor, partial curve, poor fit] | –
COC(=O)c1sc2nc3c(cc2c1N)CCCC3 | – | inactive: 22.5% [at 102 µM]
O=C(COc1ccccc1)Nc1nnc(-c2ccco2)o1 | inconclusive: 35.5 µM [inhibitor, full curve] | –
Cc1ccc(S(=O)(=O)N2CCCC(C(=O)NCC3CCCO3)C2)cc1 (stereo unspecified) | – | inactive: -49.4% [at 102 µM]
COCc1cc(C2C(C(=O)c3ccco3)=C(O)C(=O)N2CCOCCO)ccc1O (stereo unspecified) | – | inconclusive: -71% [inhibitor]
COc1cccc(CN(C(=O)Cc2c[nH]c3ccccc23)C(C(=O)NC2CCCCC2)c2ccc(C)o2)c1 (stereo unspecified) | inconclusive: 8.91 µM [inhibitor, partial curve, poor fit] | –
COc1cc2c(cc1OC)CN(CC(=O)Nc1ccc(C#N)cc1)CC2 | – | inactive: 14% [at 12.7 µM]
Cc1cccc(C(c2sc3nc(-c4ccco4)nn3c2O)N2CCOCC2)c1 (stereo unspecified) | – | inactive: 11.7%
COCCn1nnnc1CN1CCN(c2cccc(C(F)(F)F)c2)CC1 | inconclusive: 44.7 µM [inhibitor, partial curve, poor fit] | –
Cc1ccc(NC2CCCN(C(=O)c3ccccc3N3CCOCC3)C2)cc1C (stereo unspecified) | inconclusive: 79.4 µM [inhibitor, single point] | –
Cc1cccc(N2CCN(C(=O)CCS(=O)(=O)c3ccc4c(c3)CC(=O)N4C)CC2C)c1 (stereo unspecified) | inconclusive: 25.1 µM [inhibitor, single point] | –
COc1ccccc1CNC(=O)COC(=O)c1ccc(NC(N)=O)cc1 | inconclusive: 70.8 µM [inhibitor, partial curve, poor fit] | –
CCc1ccc(C(=O)Cn2ccsc2=N)cc1 | active: 50.1 µM | –
NCCCC[C@H]1CNC(=S)N1CC1(c2ccccc2)CC1 | inconclusive: 1.41 µM [inhibitor, single point] | –
CCNC(=S)NS(=O)(=O)c1ccc(C)cc1 | active: 31.6 µM | –
Cc1ccc(S(=O)(=O)N2CC=C(C(=O)NC3CCCC3)CC2)cc1 | inconclusive: 44.7 µM [inhibitor, partial curve, poor fit] | –
CCOc1ccc2ccc(OCC)c(/C=N/n3cnnc3)c2c1 | – | inactive: 25.4% [at 102 µM]
CC(C)C(=O)Nc1cccc2nsnc12 | – | inactive: -5.12% [at 102 µM]
S=C(c1cn(CCOc2cccc3ccccc23)c2ccccc12)N1CCCC1 | inconclusive: 89.1 µM [inhibitor, single point] | –
CN(C)Cc1nc2ccccc2c(=O)n1Cc1nc(C(C)(C)C)cs1 | inconclusive: 79.4 µM [inhibitor, single point] | –
CC1(C)CC(=O)C=C(NNC(=O)OC(C)(C)C)C1 | inconclusive: 2.24 µM [inhibitor, full curve] | –
Oc1c(C(c2ccco2)N2CCC3(CC2)OCCO3)sc2ncnn12 (stereo unspecified) | active: 35.5 µM | –

Reference: PubChem BioAssay AID504332 (National Center for Advancing Translational Sciences (NCATS), 2011)
